In paper PMC6919601, “Identification of Plasmodium dipeptidyl aminopeptidase allosteric inhibitors by high throughput screening” (PLoS ONE, 2019):
The campaign covered roughly 110,000 compounds. About 230 (0.21%) showed an effect of 50% or more. The list shows a part of the results.

What follows are compounds tested against DPAP1 (Plasmodium falciparum, UniProt Q8IIJ9) (assay: primary screen, percent inhibition; read by cleavage of a fluorogenic dipeptide substrate; higher = more effect of the substance).
Parameters: species or system P. falciparum D10 trophozoite lysates; single well
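Note: 30 min substrate incubation versus DMSO and 10 µM JCP410 controls.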

Chain of DPAP1 (Q8IIJ9 whole entry, looked up): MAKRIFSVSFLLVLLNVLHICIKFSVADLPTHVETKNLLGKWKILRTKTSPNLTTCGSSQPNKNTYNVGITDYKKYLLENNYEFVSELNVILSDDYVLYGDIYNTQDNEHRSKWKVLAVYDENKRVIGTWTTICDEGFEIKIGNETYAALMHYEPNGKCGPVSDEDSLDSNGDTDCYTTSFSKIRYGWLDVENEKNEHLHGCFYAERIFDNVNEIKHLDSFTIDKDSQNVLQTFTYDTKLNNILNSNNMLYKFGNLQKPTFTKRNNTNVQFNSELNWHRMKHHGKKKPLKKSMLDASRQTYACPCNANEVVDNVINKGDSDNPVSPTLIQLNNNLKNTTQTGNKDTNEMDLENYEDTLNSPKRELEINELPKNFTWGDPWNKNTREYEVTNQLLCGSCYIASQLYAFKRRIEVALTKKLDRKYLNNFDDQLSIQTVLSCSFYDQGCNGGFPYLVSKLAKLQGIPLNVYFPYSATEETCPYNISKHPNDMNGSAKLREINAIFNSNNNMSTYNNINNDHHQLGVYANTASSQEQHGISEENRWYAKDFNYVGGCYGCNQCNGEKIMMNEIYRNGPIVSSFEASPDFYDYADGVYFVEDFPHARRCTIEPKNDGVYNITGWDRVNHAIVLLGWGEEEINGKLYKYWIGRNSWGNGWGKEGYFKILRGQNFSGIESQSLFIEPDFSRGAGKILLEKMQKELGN

SMILES | % Inhibition @ 10 uM [%]
O=c1oc(-c2ccccc2)cc(Cl)c1Cl | 8.06
O=C(Cn1ncc2ccc(Cl)cc21)NCc1ccc2c(c1)OCO2 | -2.88
O=C1c2ccccc2C(=O)N1CC#Cc1ccccc1 | 5.66
Cc1nc2c(c(C)nn2C)c(C)c1CCC(=O)NCCCc1ccccc1 | -2.45
Cc1ccc(S(=O)(=O)N(C)c2c(C)ccc(S(=O)(=O)N3CCN(C)CC3)c2C)cc1 | 2.01
O=C(COc1ccc2ccccc2c1)Nc1ccccc1OC(F)F | 5.48
O=C(O)c1cc2c(ccc3ccccc32)[nH]1 | 1.88
CCC(C)NC(=O)[C@@H](c1ccccc1)N1Cc2ccccc2C1=O (stereo partly drawn) | 2.72
COc1ccc(C)cc1NC(=O)c1ccc([N+](=O)[O-])cc1Cl | 1.04
COc1ccc(CCn2c(C)cc3c(c2=O)C(c2ccccc2)C(C#N)=C(N)O3)cc1OC (stereo not drawn) | -3.63
Oc1nc(Cn2nnc(-c3ccc4c(c3)OCO4)n2)nc2ccccc12 | -1.05
Cc1ccc(C(=O)NCc2ccccc2)o1 | -0.132
CC1=NN(c2nc3ccccc3nc2Cl)C(=O)C1 | -6.58
CS(=O)(=O)c1ccc2nc(NC(=O)Nc3ccccc3)sc2c1 | -8.3
Cc1cc(C)c(-c2cc(C(F)(F)F)no2)c(O)n1 | 4.96
COc1ccc(CC(C)N(C)Cc2cccc3ccccc23)cc1 (stereo not drawn) | 3.48
c1cncc(-c2nnc3n2C2(CCCCC2)Cc2ccccc2-3)c1 | -2.91
Fc1ccccc1-c1nnc(-c2ccc3c(c2)OCO3)o1 | 1.29
COc1ccccc1NC(=O)c1cc(F)c(Cl)nc1Cl | -6.66
Cc1nn(Cc2ccccc2)c(C)c1C(=O)NS(=O)(=O)c1ccccc1Cl | -5.51
COc1ccc(/C=C\c2onc(C)c2S(=O)(=O)N2CCC(C(=O)N3CCOCC3)CC2)cc1 | 2.14
Cc1ccsc1/C=C1\N=C(c2cccc(Br)c2)OC1=O | -5.41
Cc1cc2c(c(=O)n1Cc1ccc3c(c1)OCO3)C(c1cccs1)C(C#N)=C(N)O2 (stereo not drawn) | -2.91
NC(=O)c1nn2c(C(F)(F)F)cc(-c3ccccc3)nc2c1Br | 1.87
Cc1ccccc1Cn1c(Cl)nc2c1c(=O)n(C)c(=O)n2C | 1.78
NC(=O)c1c(NC(=O)C2CC=CCC2C(=O)O)sc2c1CCC2 (stereo not drawn) | -4.01

SMILES | % Inhibition @ 10 uM [%]
COc1ccc(CCNC(=O)c2cc3c(Cl)ccc4c3n2CCO4)cc1OC | 3.8
COc1ccc(-c2nc(CSCC(=O)NCc3cccnc3)c(C)o2)cc1 | 3.99
O=c1c(=O)n(Cc2cccc(Cl)c2)ccn1Cc1ccccc1 | 1.79
Cc1cccc(NCc2ccc(O)c3ncccc23)n1 | -8.28
Nc1c(C(=O)c2ccccc2)oc2ccc(Cl)cc12 | 0.503
O=C(c1cnn2c1NC(c1ccccc1)CC2C(F)F)N1N=C(C(F)F)CC1(O)C(F)F (stereo not drawn) | -3.18
O=C(Nc1ccc(N2C(=O)C3CC=CCC3C2=O)cc1)c1ccccc1 (stereo not drawn) | 3.75
CCc1cc2c(cc3c(=O)n(CC(=O)NC(C)c4ccccc4)nc(CC)n32)s1 (stereo not drawn) | 7.81
CC(C)(C)N1CC(C(=O)O)CC1=O (stereo not drawn) | 0.0289
CN1CCN(CCNC(=O)c2cnn(-c3ccc(F)cc3)c2-n2cccc2)CC1 | -5.37
Cc1ccc(NC(=O)C2CC(=O)N(c3ccc(F)cc3)C2)c(C)c1 (stereo not drawn) | 0.147
CCN(CC)S(=O)(=O)c1ccc(NC(=O)c2ccc(OC)cc2)cc1 | -0.992
COc1cc(NC(=O)c2cc(OC)c(OC)c(OC)c2)c(OC)cc1Cl | -10.7
COC(=O)c1cn(C(=O)COc2ccc(C)cc2Br)c2ccccc12 | 2.56
Cc1cccc(-c2noc(CNC(=O)C(C)(C)C)n2)c1 | 2.14
CCN(CC)CCN(C)Cc1ccc(C)cc1 | -4.28
CCN(CC)S(=O)(=O)c1ccc(NC(=O)COc2ccc(Cl)c(C)c2)cc1 | -0.132
O=C(NCCCCc1ccccc1)c1ccc(Cl)cc1 | 3.53
COc1cc(CN2CCN(Cc3cccc(C)c3)CC2)cc(OC)c1 | -6.57
COc1cc(OC)c(OC)cc1/C=C1/SC(Nc2ccccc2)=NC1=O | 9.94
Cc1nc2cc(C(=O)NCc3cccnc3)ccc2n1-c1ccc(Br)cc1 | 4.35
O=C(O)CSc1nnc(Nc2ccccc2)n1-c1ccccc1 | -3.98
CCOC(=O)c1cnc2cc(-c3ccc(OC)cc3)nn2c1-c1ccccc1 | 2.96
C=CCc1ccc(OCCOc2ccc(/C=C3/C(=N)N4OC(C)=CC4=NC3=O)cc2Cl)c(OC)c1 | -3.23
COc1ccc(Cl)cc1S(=O)(=O)N1CCN(c2cccc(Cl)c2)CC1 | 4.25
CCOc1ccccc1-n1nnc(-c2nc(-c3ccc(C)cc3)no2)c1N | 1.13

SMILES | % Inhibition @ 10 uM [%]
Cc1ccc(/C=N/OC(=O)c2nn(C)cc2Cl)cc1 | -0.995
COc1ccc(-c2nc3cc(N)ccc3o2)cc1Br | -3.82
O=S1(=O)C(/C=N/CCc2c[nH]c3ccccc23)=C(O)c2sccc2N1Cc1cccc(F)c1 | -5.38
CCc1nc2ccccc2c(NC(=O)CN2CCN(Cc3ccccc3)CC2)c1C | -2.91
CC(=O)c1cc2c(cc1NC(=O)COc1ccc(C)cc1C)OCO2 | -2.32
Cc1ccnc(NC(=O)Cc2ccc(Br)cc2)c1 | 3.29
COc1ccc(C(=O)Nc2cccc(C(C)=O)c2)cc1Br | 2.01
N#CCNC(=O)[C@H](CC1CCCCC1)NC(=O)c1ccccc1 | -0.214
CC(=O)c1ccc(NC(=O)c2ccc(-c3ccccc3)cc2)cc1 | -3.41
Cc1ccc(C(=O)Nc2cccc(C(=O)O)c2)o1 | 0.132
Cc1cc(C)n(CCc2nc3c4ccccc4nc(NCCC(C)C)n3n2)n1 | -2.42
COc1ccc(C2C3=C(O)CCCC3=Nc3nc(SCC(C)C)nn32)c(OC)c1 (stereo not drawn) | -0.704
CCCCNC(=O)c1cc2nc(-c3ccc(OCC)cc3)cc(C)n2n1 | -7.15
Cc1nc(N2C(=O)C(O)=C(C(=O)c3ccc(Cl)cc3)C2c2ccco2)sc1C (stereo not drawn) | -7.17
CN1CCc2c1nc1ccccc1c2NC(=O)CN1CCCCC1 | -4.21
CC(C)c1nn2c(=O)cc(CSc3nnc(NC(=O)c4ccc5c(c4)OCO5)s3)nc2s1 | 0.747
Cc1ccc2nc3c(O)n(CC(=O)NCc4cccnc4)ncc-3c2c1 | -4.59
CCN(CC)c1ccc(NC(=O)c2ccc(S(=O)(=O)N3CCCCC3C)cc2)cc1 (stereo not drawn) | 3.24
CCOC(=O)c1cnc2c(-c3ccc(Cl)cc3)c(C)nn2c1N | -1.37
O=C(Nc1ccccc1F)c1cccc2ccccc12 | 2.13
COc1ccc2c(c1)C1CC(C)(O2)N(C)C(=O)C1S(=O)(=O)c1ccc(C)c(C)c1 (stereo not drawn) | 2.57
CCOC(=O)c1c(C)c(-c2ccccc2)n(CC(=O)NCCCN(C)Cc2ccccc2)c1C | 1.72
O=C(NC1CCN(Cc2ccccc2)CC1)c1ccccc1Cl | -0.292
COc1ccc(-c2nnc3sc(NC(=O)COc4ccccc4F)nn23)cc1OC | 3.36
CS(=O)(=O)Oc1cc2oc(=O)c3c(c2cc1Cl)CCCC3 | -3.41
COc1cc(CN2CCN(c3ccccc3F)CC2)cc(OC)c1 | 2.46

SMILES | % Inhibition @ 10 uM [%]
O=C(O)c1ccc(-n2cnnn2)cc1 | -6.06
CCS(=O)(=O)N1CC=C(c2c(C)n(CC(=O)N3CCCC3)c3ccccc23)CC1 | 3.96
CS(=O)(=O)N(CC(=O)NCc1ccc(Cl)cc1Cl)c1cccc(F)c1 | -4.16
Cc1sc(NC(=O)c2cccc3ccccc23)c(C(N)=O)c1C | 4.81
CC(C)COC(C(=O)OC(C)CN(C)C)(c1ccccc1)c1ccccc1 (stereo not drawn) | -1.42
COc1ccc(NC(=O)COc2ccccc2C)cc1 | 3.5
COc1ccccc1N1CCN(C2CC(=O)N(C)C2=O)CC1 (stereo not drawn) | 0.98
CCOCCCNC(=O)c1cc(C)nc2c1c(C)nn2-c1ccccc1 | 5.32
COCCNC(=O)Cn1cc(C=C2C(=O)N(C)C(=O)N(C)C2=O)c2ccccc21 | -1.26
CCOc1ccc2sc(/C=N/CCc3ccccn3)c(O)c2c1 | 4.54
O=c1sc2ccccc2n1Cc1cccc(Cl)c1 | 2.46
O=S(=O)(c1ccccc1)c1cnc2cc3c(cc2c1N1CCOCC1)OCCO3 | -6.24
C=CCNC(=O)CN(Cc1ccc(C)cc1)S(=O)(=O)c1ccccc1 | -6.81
COc1ccc(C2NC(C(=O)O)CS2)c(OC)c1 (stereo not drawn) | 19.3
CCOC(=O)N1CCC(Nc2nc3ccc(Cl)cc3n3cnnc23)CC1 | -0.735
Cc1ccccc1N(CC(=O)Nc1cccc(Br)c1)S(C)(=O)=O | -6.77
COc1ccc(C(=O)C2=C(O)C(=O)N(CCN3CCOCC3)C2c2cccs2)c(C)c1 (stereo not drawn) | -1.61
O=C(CC(c1ccc(F)cc1)N1Cc2ccccc2C1=O)Nc1nccs1 (stereo not drawn) | -4.97
CCCN1C(=O)C(O)(CC(=O)c2ccc(OC)cc2)c2cc(Br)ccc21 (stereo not drawn) | 1.57
Cn1ccnc1CC(O)(c1ccccc1)c1ccccc1 | 6.32
O=C(CNS(=O)(=O)c1ccccc1)N1CCCCC1 | 0.0504
COc1ccc(S(=O)(=O)NC(Cc2ccccc2)C(=O)O)cc1 (stereo not drawn) | -7.23
CCC(C)NCc1c(C(=O)O)n(Cc2ccccc2F)c2cc(OC)ccc12 (stereo not drawn) | 0.896
O=C(O)CN(CC(=O)O)C1CCCCC1N(CC(=O)O)CC(=O)O (stereo not drawn) | 2.32
